According to PubChem BioAssay AID1832 (Broad Institute, 2009):
The campaign covered roughly 300,000 compounds. About 1,100 (0.37%) were called active. The shares of active, inactive and inconclusive entries below differ from those in the screen.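 Rule for the calls: active = inhibition past about -25% in most replicates, and total fluorescence under double the plate's negative control median (limit read from the data); inconclusive = replicates evenly split on the limit, or fluorescence at least double controls; inactive = too little inhibition in most replicates.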

Biological target: Zinc finger protein mex-5 (Caenorhabditis elegans) (UniProt Q9XUB2)
Sequence of UniProt Q9XUB2 (Q9XUB2 whole entry, looked up): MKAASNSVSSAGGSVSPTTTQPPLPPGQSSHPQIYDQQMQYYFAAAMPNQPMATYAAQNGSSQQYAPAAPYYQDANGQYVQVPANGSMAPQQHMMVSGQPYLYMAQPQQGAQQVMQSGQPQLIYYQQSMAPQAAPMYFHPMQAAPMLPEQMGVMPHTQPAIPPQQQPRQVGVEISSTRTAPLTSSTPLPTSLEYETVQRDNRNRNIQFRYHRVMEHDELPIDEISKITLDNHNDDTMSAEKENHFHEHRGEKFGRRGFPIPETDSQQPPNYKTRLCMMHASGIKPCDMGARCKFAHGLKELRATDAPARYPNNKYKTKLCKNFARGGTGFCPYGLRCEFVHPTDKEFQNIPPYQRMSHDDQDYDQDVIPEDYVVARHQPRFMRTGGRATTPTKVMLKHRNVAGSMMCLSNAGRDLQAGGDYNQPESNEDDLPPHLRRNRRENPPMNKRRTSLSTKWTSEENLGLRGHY
Experiment: MEX-5 zinc finger RNA-binding disruptors – biochemical, C. elegans, fluorescence polarization, MLPCN library, primary screen (AID 1832);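 note: 0% = DMSO and -100% = 5 µM competing unlabeled TCR2 RNA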
Conditions: MEX-5/FITC-TCR2 RNA binding, at 10 µM, hits give low values

Activity score (negative = inhibition of binding), active:
COc1ccc(-c2nnc(-c3cc4c(ccc5ccccc54)oc3=O)o2)cc1 -41.7%
CCC(=S)/C=C1\Sc2ccc3ccccc3c2N1CCCS(=O)(=O)O -68.1%
O=C1CS/C(=N/N=C/c2cccs2)N1 -32.3%
COc1ccc(C(=O)Nc2nc(-c3ccc([N+](=O)[O-])cc3)c(-c3ccccc3)s2)cc1 -162%
COc1cc2c(cc1OC)-c1c(OC)c(OC)cc3ccnc(c13)C2=O -57.3%
CC[n+]1c(/C=C/c2ccc(N(C)C)cc2)ccc2ccccc21 -27.3%
COc1ccc(CNC(=O)c2cnc3cc(C)ccn3c2=O)cc1 -28.1%
N#CC(C(=O)NC1CCCCC1)c1nc2ccccc2nc1N1CCN(c2ccc(F)cc2)CC1 (configuration not stated) -76.2%
Nc1cc2c3c(cccc3c1)C(=O)N(CCN1CCCC1)C2=O -28.1%
O=C1C2CC=C(Cl)CC2C(=O)N1CC1Cc2ccccc2CO1 (configuration not stated) -25.9%
CCOC(=O)Cn1c(=O)c(-c2cc(Br)ccc2N)nc2ccccc21 -38.2%
CCOC(=O)c1c(NC(=O)CC2Nc3ccccc3NC2=O)sc(C)c1C (configuration not stated) -34.7%

Activity score (negative = inhibition of binding), inactive:
Cc1cc(C(=O)NN)n[nH]1 3.82%
O=C(Nc1cccc(S(=O)(=O)NC2=NCCCCC2)c1)c1cc(-c2ccccc2)nc2ccccc12 1.85%
CN1CCN(C(=S)c2ccc([N+](=O)[O-])cc2)CC1 1.82%
Cc1ccc(-n2[nH]c(C)c(/C=C3/C=Nc4ccccc43)c2=O)cc1C 2.68%
CC(C)c1ccc(CNc2ccc(N3CCOCC3)cc2)cc1 -0.894%
COc1ccc(-c2sc(NC(=O)c3ccc(C)cc3)nc2-c2ccc([N+](=O)[O-])cc2)cc1 3.28%
CC(C)n1nnc2c(=O)oc3ccccc3c21 0.847%
Cc1c(C(=O)N2CCN(Cc3ccc4c(c3)OCO4)CC2)sc2ncnc(N3CCN(c4ccccc4F)CC3)c12 -4.28%
CC(C)C(NC(=O)c1ccccc1NC(=O)c1ccccc1)C(=O)NCCCn1ccnc1 (configuration not stated) 1.52%
O=C(NNC(=O)c1ccc(O)cc1O)c1ccc(-c2ccccc2)cc1 -1.77%
Cc1ccc(S(=O)(=O)Nc2cccc(C(=O)N3CCOCC3)c2)cc1 -0.665%
COc1cccc(OCc2cc(C(=O)N3CCN(C)C(c4ccccc4)C3)no2)c1 (configuration not stated) 1.24%
Cc1ccc(-n2nc3ccc(N)cc3n2)cc1C 0.267%
Cc1cc2cc(CCNC(=O)C3c4ccccc4Oc4ccccc43)c(=O)[nH]c2cc1C -0.316%
CCOCCCNC(=S)NCCNc1nc2c(C)cccc2cc1C#N 0.676%
C#Cc1cccc(-n2nnc(C(C)=O)c2C)c1 -0.726%
CN(C(=O)CN1C(=O)S/C(=C\c2ccccc2Cl)C1=O)C1CCS(=O)(=O)C1 (configuration not stated) 2.82%
Cc1ccc(S(=O)(=O)c2cc3c(=O)n4ccccc4nc3n(CC3CCCO3)c2=N)cc1C (configuration not stated) -0.602%
Cc1cccc(NC(=O)c2ccc([N+](=O)[O-])s2)c1C 0.376%
Cc1ccc(NC(=O)CN2C(=O)NC(Cc3ccccc3)C2=O)c(Br)c1 (configuration not stated) 0.484%
Cc1cc2cc(CNS(=O)(=O)c3ccccc3)ccc2n1C -1.11%
COc1ccc(CN2C(=O)c3cccnc3C2=O)cc1S(=O)(=O)NCc1ccc(C)o1 2.1%
Cc1ccc(CNC(=O)CCCn2c(=O)c3ccccc3n(CC(=O)NC3CCCC3)c2=O)cc1 -0.455%
CCn1c(SCC(=O)N2CC(C)OC(C)C2)nc2c([nH]c3ccccc32)c1=O (configuration not stated) 1.03%

Activity score (negative = inhibition of binding), inconclusive:
Nc1ccc2c3c(cccc13)C(=O)N(c1ccccc1)C2=O -88.9% [fluorescent]
COc1cc(/C=N/c2oc(-c3ccccc3)cc2C#N)ccc1O -23.4%
O=C1NC(=S)S/C1=C/c1ccc(N2CCOCC2)o1 34.5% [fluorescent]
CCCCCCNC(=O)C(C#N)c1nc2ccccc2nc1N1CCCC1 (configuration not stated) 140% [fluorescent]
C[n+]1ccc(/C=C/c2c[nH]c3ccc(F)cc23)cc1 48.6% [fluorescent]
COc1ccc(C2=CC3=C(Br)C(=O)C(C)(OC(=O)C4CCCC4)C(=O)C3=CO2)cc1 (configuration not stated) -24.3%
Cc1ccc(Cn2c(=N)c(C(=O)NC3CCCCC3)cc3c(=O)n4ccccc4nc32)cc1 -45.6% [fluorescent]
O=c1oc(/C=C/c2ccco2)nc2sc3c(c12)CCC3 -2.62%
CCCSc1nnc(N2C(=O)C(O)=C(C(=O)c3ccco3)C2c2ccccc2F)s1 (configuration not stated) -19.8%
O=C(NNC(=S)NC(=O)c1ccccc1[N+](=O)[O-])c1ccccc1O -25.2%
Oc1ccc2nnc3c(Br)cnn3c2c1 -115% [fluorescent]
COc1ccc(N2C(=O)c3cccc4c(N(C)CCO)ccc(c34)C2=O)cc1 -59% [fluorescent]
COc1ccc(-c2nnc(Nc3nc4c(OC)cccc4s3)o2)c(OC)c1 -18.9%
CC1=NOC(=O)/C1=C/c1ccc2c(c1)OCO2 -23.3%
O=C(O)CCCCC1CCSS1 (configuration not stated) 28.2% [fluorescent]
Cc1nc(SCCOc2ccc(F)cc2)c2ccccc2n1 -14.4%
Cc1cccc(/C=C(\C(=O)C(=O)O)c2ccc3ccccc3n2)c1 -21.1%
COC(=O)C1CSc2[nH]c(=O)sc2C1c1ccc(OC)c(OC)c1 (configuration not stated) -18.7%
COc1cc2c3nnc(-c4ccc(F)cc4)c-3cn(Cc3cccc(F)c3)c2cc1OC -72.8% [fluorescent]
COc1ccccc1N1C(=O)S/C(=C\c2cc(C)n(C)c2C)C1=O -79.4% [fluorescent]
N=C1/C(=C\c2coc3ccc(O)cc3c2=O)C(=O)N=C2SC=CN12 -44.9% [fluorescent]
CCCCn1c(=O)[nH]c(=O)c2c1nc(-c1ccc(-c3ccccc3Br)o1)n2CCOC -25.2%
COc1ccccc1N1N=C(C(=O)c2ccccc2)C2C(=O)N(c3ccc(Br)cc3)C(=O)C21 (configuration not stated) -62.1% [fluorescent]
CCN1C(=O)c2cccc3c(N)ccc(c23)C1=O -115% [fluorescent]
Cc1ccc(C(=O)/C=C/c2ccccc2[N+](=O)[O-])cc1 -15.2%
N#C/C(=C/c1ccc(O)c(O)c1)c1nc2ccccc2[nH]1 40.3% [fluorescent]
CC[n+]1c(/C=C/C=C/N(C(C)=O)c2ccccc2)sc2ccccc21 53.6% [fluorescent]
Cc1cccc(CS(=O)(=O)c2nnc([C@H](Cc3ccccc3)NC(=O)OC(C)(C)C)o2)c1 -25.2% [fluorescent]
COC(=O)C1CCN(c2nc3ccccc3nc2C(C#N)C(=O)NCCc2ccccc2)CC1 (configuration not stated) -69.5% [fluorescent]
CSc1c(C#N)c(N)nc2sc(C(=O)c3ccccc3)c(N)c12 -85.7% [fluorescent]
O=C(c1ccco1)N1CCc2ccccc21 -12.7%
O=C(O)CCC(=O)N1N=C(c2cccs2)CC1c1cn(-c2ccccc2)nc1-c1ccccc1 (configuration not stated) -23.1%
N#C/C(=C/c1ccc(CNS(=O)(=O)c2ccccc2)o1)C(=O)NCc1ccccc1 -17.2%
COc1cccc2c1C(=O)c1c(O)c3c(c(O)c1C2=O)C[C@](O)(C(C)=O)C[C@H]3O[C@@H]1C[C@@H](N)[C@@H](O)[C@@H](C)O1 -104% [fluorescent]
CCN1CC=C2C(C#N)=C(N)C(C#N)(C#N)C(c3cc(Cl)ccc3Cl)C2C1 (configuration not stated) -25.4%
Cc1c(N=Cc2c(O)n(C)c(=O)c3ccccc23)c(=O)n(-c2ccccc2)n1C 20.2%
CCOc1ccc2c(c1)c1nc3ccccc3nc1n2C -58.9% [fluorescent]
Cc1onc(-c2c(F)cccc2Cl)c1C(=O)N1CCCc2ccccc21 -15.1%
O=C1c2ccccc2C(=O)N1CCCc1nc(-c2ccncc2)no1 -12%
Nc1c(C(=O)c2cccs2)sc2nsc(SCCN3CCCCC3)c12 -20.7%
Cc1ccc(/C=N/NC(=O)c2nnn(-c3nonc3N)c2-c2cccs2)cc1 -23.5%
COc1ccc(/C=C/C(=O)c2c(O)cc(C)oc2=O)c(OC)c1 -7.57% [fluorescent]
COc1ccc2noc3c2c1C(=O)c1ccccc1-3 -142% [fluorescent]
CCOc1ccc(N=Nc2c(=O)[nH]n3c(=O)c4c([nH]c23)CCCC4)cc1 -22.7%
COC1=C/C(=C/c2c(N)n3c(nc2=O)sc2cc(S(C)(=O)=O)ccc23)C=CC1=O 62.1% [fluorescent]
CCN1CCN(Cc2c(C(=O)N/N=C(\C)c3ccc(Cl)cc3)nnn2-c2nonc2N)CC1 -24.4%
